Laboratory results taken from the RNAGym collection of RNA variant scans (doi:10.1073/pnas.2313332121).
Variants at the background level are over-represented here.

B1: TPR 5TU (parent)
chain: GGAUCUUCUCGAUCUAACAAAAAAGACAAAUCUGCCACAAAGCUUGAGAGCAUCUUCGGAUGCAGAGGCGGCAGCCUUCGGUGGCGCGAUAGCGCCAACGUUCUCAACUAUGACACGCAAAACGCGUGCUCCGUUGAAUGGAGUUUAUCAUG

Variants of: B1
Test: polymerase ribozyme fitness, log enrichment relative to wild type (log ratio); higher = more active; in vitro selection for triplet polymerase activity
Method in brief: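 Input and output libraries were sequenced on Illumina after a single in vitro selection round, run in triplicate on PCR-built, transcribed mutant libraries of each subunit of a heterodimeric triplet polymerase ribozyme. Selection annealed libraries to a biotinylated primer, the partner subunit and triplets, incubated them frozen at −7 °C, then gel-excised extended constructs for streptavidin-bead capture and RT-PCR. Genotypes with ≥10 input reads and ≥1 read per output were kept. Fitness is the logarithm, taken in base 2, of genotype enrichment divided by wild-type enrichment, using inverse-variance-weighted replicate averages.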

Row | Variant | polymerase ribozyme fitness (log ratio)
1 | GGAUCUUCUCGAUCUAACAAAAAAGUCAACUCUGCCACAAAGCUUGAGAGCAUCUUCGGAUGCAGAGGCGCCAGCCUUAGGUGGCGCGAUAGCGCCAACGUUCUCAACUAUGACACGCAAAACGAGUGCUCCGUUGAAUGGAGUUUAUCAUG [A26U A30C G71C C79A C125A] | ≤ -4.2
2 | GGAUCUUCUCGAUCUAACAAAAAAGUCAAAUCUGCCACAAAGCUUGAGGGCAUCUUCGGAUGCAGAGGCGGCAGCCUUCGGUGGCGCGCUAGCGCCAACGUUCUCAACUAUGACACGCAAAACGCGUGCUCCGCUGAAGAGAGUUUAUCAUG [A26U A49G A89C U134C U139G G140A] | ≤ -4.2
3 | GGAUCUUCUCGAUCUAACAAAAAAGUCAAAUCUGCCACCAAGCUUGAGAGCAACUUCGGAUGCAGAGGCGGCAGCCUUCGGUGGAGAGAUAGCGCCAACGUUCUCAAAUAUGACACGCAAAACGCGUGCUCCGUUGAAUGGAGUUUAUCAAG [A26U A39C U53A C85A C87A C108A U151A] | ≤ -4.2
4 | GGAUCUUCUCGAUCUAACAAAAAAGUCAAAUCUGCCACAAAGCUUGAGUGCAUCUUCGUAUGCAGAGGCGGCAGCCUUCGGUGGCGCGAUAGCGCCAACGUUCUCAACUAUGACACGCAAAACGCGUGCUCCGUUGAAUGGAGUUUAUCAUG [A26U A49U G59U] | ≤ -4.2
5 | GGAUCUUCUCGAUCUAACAAAAAAGUCAAUUCUGCCACAAAGCUUGAGAGCAUCUUCGGAUGCAGAGGCGGCAGCCUUCGGUGGCGCGAUAGCGCCAACGUUCUCAACUAUGACACGCAAAACGCGUGCUCCGUUGAAUUGAGUUUAUCAUG [A26U A30U G140U] | ≤ -4.2
6 | GGAUCUUCUCGAUCUAACAAAAAAGUCAAAUGUGCCACAAAGCUAGAGAGCAUCUUAGGAUGCAGAGGCGGCAGCCUUCGGUUGCGCGAUAGCGCCAACGUUCUCAACUAUGACACGCAAUACGCGUGCUCCGUUGAAUGGAGUUUAUCAUG [A26U C32G U45A C57A G83U A121U] | ≤ -4.2
7 | GGAUCUUCUCGAUCUAACAAAAAAGUCAUAUUUGCCACAAAGCUUGAGAGCAUCUACGGAUGGAGAGGCGGCAGCCUUCGGUGGCGCGAUAGCGCCAACGUUCUGAACUAUGACACGCAAAACGCGUGCUCCGUCGAAUGGAGUUUAUCAUG [A26U A29U C32U U56A C63G C105G U135C] | ≤ -4.2
8 | GGAUCUUCUCGAUCUAACAAAAAAGUCAAAUCUGGCACAAAGCUUGAGAGCAUCUUCGGAUGCAGAGGCGGCAGCAUUCGGUGGCCCGAUAGCGCCAACGUUCUCAACUAUGACACGCAAAACGCGUGCUCCGUUGAAUGGAGUUUAUCAUG [A26U C35G C76A G86C] | ≤ -4.2
9 | GGAUCUUCUCGAUCUAACAAAAAAGUCAAAUCUGCCACAAAGCUUGAGGGCAUCAUCGGGUGCAGAGGCGGCAGCCUUCGGUGGCGCGAUAGCGCUAACGUUCUCAACUAUGACACGCAAAACGCGUGCUCCGUUAAAUGGAGUUUAUCAUG [A26U A49G U55A A60G C96U G136A] | ≤ -4.2
10 | GGAUCUUCUCGAUCUAACAAAAAAGUCAUAUCUGCCACAAAGCUUGAAAGCAUCUUCGGAUGCAGAGGCGGCAGCCUUCGGUGGCGCAAUAGCGCCAACGUUCUCAACUAUGACACGCAAAACGCGUGCUCUGUUGAAUGGAGUUUAUCAUG [A26U A29U G48A G88A C132U] | ≤ -4.2
11 | GGAUCUUCUCGAUCUAACAAAAAAGUCAACUCUGCAACAAAGCUUGAGAGCAUCUUCGGAAGCAGAGGCGGCAGCCUUCGGUGGUGCGAUAGCGGCAACGUUCUCAACUAUGACACUCAAAACGCGUGCUCCGUUGAAUGGAGUUUAUCAUG [A26U A30C C36A U61A C85U C95G G117U] | ≤ -4.2
12 | GGAUCUUCUCGAUCUAACAAAAAAGGCAAAUCUGCCACAAAGCUUGAGAGCAUCUUCGGAAGCAGAGGCGGCAGCCUUCGGUGGGGCGAUAGCGCCAACGUUCUCAACUAUGACACGCAAAACGCGUGCUCCGUCGAAUGGAGUUUAUCAUG [A26G U61A C85G U135C] | ≤ -4.2
13 | GGAUCUUCUCGAUCUAACAAAAAAGUCAAAUCUGCGUCAAAGCUUGAGAGUAUCUUCGGAUGCAGAGGCGGCAGCCUUCGGUGGCGCGAUAGCGCCAACGUUCUCAACUAUGACACGCAAAACCCGUGCUCCGUUGAAUGGAGUUUAUCAUG [A26U C36G A37U C51U G124C] | ≤ -4.2
14 | GGAUCUUCUCGAUCUAACAAAAAAGUCAAAUUUGCCACAAAGCUAGAGAUCAUCAUCGGAUGCAGAGGCGGCAGCCUUCGGUGGCGCGAUAACGCCAACGUUCUCAACUAUGACACGCAAAACGCGUGCUCCGUUGAAUGGAGUUUAUCAUG [A26U C32U U45A G50U U55A G92A] | ≤ -4.2
15 | GGAUCUUCUCGAUCUAACAAAAAAGUGGAAUCUGCCACAAAGCUUGAGAGCAUCUUCGGAUGCAGAGGCAGCAGCCUUCGGUGGCGCGAUAGCGCCAACGUUCUCAACUAUGACACGCAAAACGCGUGCUCCGUUGAAAGGAGUUUAUCAUG [A26U C27G A28G G70A U139A] | ≤ -4.2
16 | GGAUCUUCUCGAUCUAACAAAAAAGUCAAAUCUGCCACAAAGCUUGAGAGCAUCUUCGGAUGCAGAGGCGGCAGCCUUCGGUGGCGCGAUAGCGCCAACGUUCUCAUCUAUGACACGCAAAACGCGUGCUCCGUUGAAUGGAGUUUAUCAUG [A26U A107U] | ≤ -4.2
17 | GGAUCUUCUCGAUCUAACAAAAAAGUCAAAUCUGCCACAAAGCUUGAGAGCGUCUUAGGAUGCAGAGGCGGCAGCCUUCGGUGGCGCGAUAGCGCCAACGUUCUAAUCUAUGAUACGCAAAACGCGUGCUCCGUUGAAUGAAGUUUAUAAUG [A26U A52G C57A C105A A107U C114U G141A C149A] | ≤ -4.2
18 | GGAUCUUCUCGAUCUAACAAAAAAGUCAAAUCUGCCACAAAGCUUGAGCGCAUCUUCGGAUGCAGAGGCGGCAGCCUUCGGCGGCGCGAUAGCGCCUACGUUCUCAACUAUGGCACGCAAAACGCGUGCUCCGUUGAAUGGAGUUUAUCAUG [A26U A49C U82C A97U A113G] | ≤ -4.2
19 | GGAUCUUCUCGAUCUAACAAAAAAGUCAAAUCUGCCACGAAGCUUGAGAGCAUCUUCGGGUGCAGAGGCGGCAGCCUUCAGUGGUGCGAUAGCGCCAACGUACUCAACUAUGACACGCAAAACGCGUGCUCCGUUGAAUGGAGUUUAUCAUG [A26U A39G A60G G80A C85U U102A] | ≤ -4.2
